# Results as given in the supplement of paper PMC8728848.
# The list shows a part of the results.
# B1: Epa15 (Candida glabrata) (protein)
# chain: MGSSHHHHHHSSGLVPRGSHMASDPTTFPLGCSPEFTKTKKGLSMELYRYDYLPPGSYPCWDSAYLNPSYPRTGYKAKKLIATVDGVSGDINFKFNPKFGCKAIPDYLPSNFNYHEPITITNFTMILYGYFMPKTTAFHTFYVTADDLLFMNFGAGNAFDCCRREETADKFGNYAAYSVWGKKSLKNELTVYLHTGVYYPIRLFYNNRDYIAQLDIRFKTEHSNAIITNFTDYFYSVDDSSLGCPGLI
# What was measured:
# Test in all cases: glycan array binding signal (z-score within array); higher = stronger binding
# Conditions in all cases: glycan notation: IUPAC condensed, linker removed
# Fuc(a1-2)Gal = target: Fuc(a1-2)Gal
# Procedure, shortened: (§1)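 The binding signal is a Z-score computed within each array. Data were drawn from 3228 arrays in the Consortium for Functional Glycomics database, restricted to those with a known protein sequence. Scores were averaged over arrays of the same protein sequence at different concentrations or buffers, and over linkers, and negative values can be taken as non-binding.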
# Fuc(a1-2)Gal(b1-3)GalNAc = target: Fuc(a1-2)Gal(b1-3)GalNAc
# Procedure, shortened: as §1
# [1] = target: Fuc(a1-2)Gal(b1-3)GalNAc(a1-3)[Fuc(a1-2)]Gal(b1-4)Glc
# Procedure, shortened: as §1
# [2] = target: Fuc(a1-2)Gal(b1-3)GalNAc(a1-3)[Fuc(a1-2)]Gal(b1-4)GlcNAc
# Procedure, shortened: as §1
# [3] = target: Fuc(a1-2)Gal(b1-3)GalNAc(b1-3)Gal
# Procedure, shortened: as §1
# [4] = target: Fuc(a1-2)Gal(b1-3)GalNAc(b1-3)Gal(a1-4)Gal(b1-4)Glc
# Procedure, shortened: as §1
# [5] = target: Fuc(a1-2)Gal(b1-3)GalNAc(b1-3)Gal(b1-4)Glc
# Procedure, shortened: as §1
# [6] = target: Fuc(a1-2)Gal(b1-3)GalNAc(b1-4)[Neu5Ac(a2-3)]Gal(b1-4)Glc
# Procedure, shortened: as §1
# Fuc(a1-2)Gal(b1-3)GlcNAc = target: Fuc(a1-2)Gal(b1-3)GlcNAc
# Procedure, shortened: as §1
# [7] = target: Fuc(a1-2)Gal(b1-3)GlcNAc(b1-2)Man(a1-3)[Fuc(a1-2)Gal(b1-3)GlcNAc(b1-2)Man(a1-6)]Man(b1-4)GlcNAc(b1-4)GlcNAc
# Procedure, shortened: as §1
# [8] = target: Fuc(a1-2)Gal(b1-3)GlcNAc(b1-2)Man(a1-3)[Fuc(a1-2)Gal(b1-3)GlcNAc(b1-2)Man(a1-6)]Man(b1-4)GlcNAc(b1-4)[Fuc(a1-6)]GlcNAc
# Procedure, shortened: as §1
# [9] = target: Fuc(a1-2)Gal(b1-3)GlcNAc(b1-3)Gal(b1-4)Glc
# Procedure, shortened: as §1
# [10] = target: Fuc(a1-2)Gal(b1-3)GlcNAc(b1-3)GalNAc
# Procedure, shortened: as §1
# [11] = target: Fuc(a1-2)Gal(b1-3)GlcNAc(b1-3)[Fuc(a1-2)Gal(b1-3)GlcNAc(b1-6)]GalNAc
# Procedure, shortened: as §1
# [12] = target: Fuc(a1-2)Gal(b1-3)GlcNAc(b1-3)[Gal(b1-4)GlcNAc(b1-6)]Gal(b1-4)Glc
# Procedure, shortened: as §1
# [13] = target: Fuc(a1-2)Gal(b1-3)GlcNAc(b1-3)[Neu5Ac(a2-6)Gal(b1-4)GlcNAc(b1-6)]Gal(b1-4)Glc
# Procedure, shortened: as §1
# [14] = target: Fuc(a1-2)Gal(b1-3)GlcNAc6S
# Procedure, shortened: as §1
# [15] = target: Fuc(a1-2)Gal(b1-3)[Fuc(a1-4)]GlcNAc
# Procedure, shortened: as §1
# [16] = target: Fuc(a1-2)Gal(b1-3)[Fuc(a1-4)]GlcNAc(b1-2)Man(a1-3)[Fuc(a1-2)Gal(b1-3)[Fuc(a1-4)]GlcNAc(b1-2)Man(a1-3)]Man(b1-4)GlcNAc(b1-4)GlcNAc
# Procedure, shortened: as §1
# [17] = target: Fuc(a1-2)Gal(b1-3)[Fuc(a1-4)]GlcNAc(b1-2)Man(a1-3)[Fuc(a1-2)Gal(b1-3)[Fuc(a1-4)]GlcNAc(b1-2)Man(a1-6)]Man(b1-4)GlcNAc(b1-4)[Fuc(a1-6)]GlcNAc(b1-4)[Fuc(a1-6)]GlcNAc
# Procedure, shortened: as §1
# [18] = target: Fuc(a1-2)Gal(b1-3)[Fuc(a1-4)]GlcNAc(b1-3)[Fuc(a1-3)[Gal(b1-4)]GlcNAc(b1-6)]Gal(b1-4)Glc
# Procedure, shortened: as §1
# [19] = target: Fuc(a1-2)Gal(b1-3)[Fuc(a1-4)]GlcNAc(b1-3)[Gal(b1-4)GlcNAc(b1-6)]Gal(b1-4)Glc
# Procedure, shortened: as §1
# [20] = target: Fuc(a1-2)Gal(b1-4)Fuc(a1-3)]GlcNAc(b1-2)Man(a1-3)[Fuc(a1-2)Gal(b1-4)[Fuc(a1-3)]GlcNAc(b1-2)Man(a1-6)]Man(b1-4)GlcNAc(b1-4)GlcNAc
# Procedure, shortened: as §1
# Fuc(a1-2)Gal(b1-4)Glc = target: Fuc(a1-2)Gal(b1-4)Glc
# Procedure, shortened: as §1
# Fuc(a1-2)Gal(b1-4)Glc6S = target: Fuc(a1-2)Gal(b1-4)Glc6S
# Procedure, shortened: as §1
# Fuc(a1-2)Gal(b1-4)GlcNAc = target: Fuc(a1-2)Gal(b1-4)GlcNAc
# Procedure, shortened: as §1
# [21] = target: Fuc(a1-2)Gal(b1-4)GlcNAc(b1-2)Man
# Procedure, shortened: as §1
# [22] = target: Fuc(a1-2)Gal(b1-4)GlcNAc(b1-2)Man(a1-3)[Fuc(a1-2)Gal(b1-4)GlcNAc(b1-2)Man(a1-6)]Man(b1-4)GlcNAc(b1-4)GlcNAc
# Procedure, shortened: as §1
# [23] = target: Fuc(a1-2)Gal(b1-4)GlcNAc(b1-2)Man(a1-3)[Fuc(a1-2)Gal(b1-4)GlcNAc(b1-2)Man(a1-6)]Man(b1-4)GlcNAc(b1-4)[Fuc(a1-6)]GlcNAc
# Procedure, shortened: as §1
# [24] = target: Fuc(a1-2)Gal(b1-4)GlcNAc(b1-2)[Fuc(a1-2)Gal(b1-4)GlcNAc(b1-4)]Man(a1-3)[Fuc(a1-2)Gal(b1-4)GlcNAc(b1-2)Man(a1-6)]Man(b1-4)GlcNAc(b1-4)GlcNAc
# Procedure, shortened: as §1
binder,measurement,setting,value
B1,glycan array binding signal (z-score),Fuc(a1-2)Gal,-0.383
same,glycan array binding signal (z-score),Fuc(a1-2)Gal(b1-3)GalNAc,-0.333
same,glycan array binding signal (z-score),[1],-0.385
same,glycan array binding signal (z-score),[2],-0.417
same,glycan array binding signal (z-score),[3],-0.095
same,glycan array binding signal (z-score),[4],-0.443
same,glycan array binding signal (z-score),[5],-0.272
same,glycan array binding signal (z-score),[6],-0.249
same,glycan array binding signal (z-score),Fuc(a1-2)Gal(b1-3)GlcNAc,-0.531
same,glycan array binding signal (z-score),[7],0.223
same,glycan array binding signal (z-score),[8],-0.142
same,glycan array binding signal (z-score),[9],-0.526
same,glycan array binding signal (z-score),[10],-0.441
same,glycan array binding signal (z-score),[11],0.29
same,glycan array binding signal (z-score),[12],-0.179
same,glycan array binding signal (z-score),[13],-0.332
same,glycan array binding signal (z-score),[14],-0.366
same,glycan array binding signal (z-score),[15],-0.446
same,glycan array binding signal (z-score),[16],-0.054
same,glycan array binding signal (z-score),[17],-0.535
same,glycan array binding signal (z-score),[18],-0.504
same,glycan array binding signal (z-score),[19],-0.547
same,glycan array binding signal (z-score),[20],0.389
same,glycan array binding signal (z-score),Fuc(a1-2)Gal(b1-4)Glc,-0.401
same,glycan array binding signal (z-score),Fuc(a1-2)Gal(b1-4)Glc6S,-0.328
same,glycan array binding signal (z-score),Fuc(a1-2)Gal(b1-4)GlcNAc,-0.446
same,glycan array binding signal (z-score),[21],-0.5
same,glycan array binding signal (z-score),[22],-0.115
same,glycan array binding signal (z-score),[23],0.381
same,glycan array binding signal (z-score),[24],-0.548
